Measured values reported in PMC12624062.
Results are given in words; binding and its absence hold for the method and conditions named. Binding seen in cells or lysates may run through a third protein. Some entries that bind do so weakly or less than the wild type.

Experiments:
[1] = target: T1, TDRD1 (mouse) (UniProt Q99MV1); test: co-IP; 293T cells transiently transfected with tagged mouse proteins; lysis in 150 mM NaCl, 50 mM Tris-HCl pH 7.4, 1% Triton X-100, 1 mM EDTA; Protein A/G agarose beads and antibodies overnight at 4 °C; washes with 300 mM NaCl; Western blot for Flag, HA, GFP; some panels with the methyltransferase inhibitor MTA
T1 sequence: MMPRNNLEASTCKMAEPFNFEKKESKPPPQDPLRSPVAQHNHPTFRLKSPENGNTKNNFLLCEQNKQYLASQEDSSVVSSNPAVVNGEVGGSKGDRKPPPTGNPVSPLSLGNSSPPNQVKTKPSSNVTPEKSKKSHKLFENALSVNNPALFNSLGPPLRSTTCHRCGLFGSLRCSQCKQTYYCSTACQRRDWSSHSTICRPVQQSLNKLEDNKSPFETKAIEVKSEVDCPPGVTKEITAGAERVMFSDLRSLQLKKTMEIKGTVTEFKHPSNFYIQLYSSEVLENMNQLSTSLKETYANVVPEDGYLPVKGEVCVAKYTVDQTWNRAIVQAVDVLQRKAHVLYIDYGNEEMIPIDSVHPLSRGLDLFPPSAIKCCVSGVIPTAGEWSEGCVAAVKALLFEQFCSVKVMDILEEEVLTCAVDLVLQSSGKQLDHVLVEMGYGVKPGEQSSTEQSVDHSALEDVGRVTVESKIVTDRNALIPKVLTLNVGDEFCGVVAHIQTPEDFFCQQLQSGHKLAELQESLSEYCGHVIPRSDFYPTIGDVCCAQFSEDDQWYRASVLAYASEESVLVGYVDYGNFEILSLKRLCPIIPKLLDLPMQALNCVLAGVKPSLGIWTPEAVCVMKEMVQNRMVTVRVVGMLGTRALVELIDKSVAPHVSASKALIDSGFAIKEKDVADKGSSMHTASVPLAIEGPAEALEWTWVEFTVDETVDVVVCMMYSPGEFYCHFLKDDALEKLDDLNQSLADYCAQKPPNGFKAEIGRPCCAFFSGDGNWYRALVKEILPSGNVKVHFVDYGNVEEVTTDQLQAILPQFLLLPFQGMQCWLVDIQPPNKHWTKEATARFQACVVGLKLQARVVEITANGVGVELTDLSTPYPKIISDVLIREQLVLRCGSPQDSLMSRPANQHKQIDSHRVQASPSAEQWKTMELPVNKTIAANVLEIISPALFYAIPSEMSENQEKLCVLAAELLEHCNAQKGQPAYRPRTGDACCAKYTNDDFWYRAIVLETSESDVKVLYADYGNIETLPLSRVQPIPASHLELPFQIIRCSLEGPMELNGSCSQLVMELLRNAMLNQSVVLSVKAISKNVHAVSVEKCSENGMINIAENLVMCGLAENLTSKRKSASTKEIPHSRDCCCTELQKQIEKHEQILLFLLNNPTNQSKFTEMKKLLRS

[2] = target: T2, ASZ1 (mouse) (UniProt Q8VD46); test: as above
T2 sequence: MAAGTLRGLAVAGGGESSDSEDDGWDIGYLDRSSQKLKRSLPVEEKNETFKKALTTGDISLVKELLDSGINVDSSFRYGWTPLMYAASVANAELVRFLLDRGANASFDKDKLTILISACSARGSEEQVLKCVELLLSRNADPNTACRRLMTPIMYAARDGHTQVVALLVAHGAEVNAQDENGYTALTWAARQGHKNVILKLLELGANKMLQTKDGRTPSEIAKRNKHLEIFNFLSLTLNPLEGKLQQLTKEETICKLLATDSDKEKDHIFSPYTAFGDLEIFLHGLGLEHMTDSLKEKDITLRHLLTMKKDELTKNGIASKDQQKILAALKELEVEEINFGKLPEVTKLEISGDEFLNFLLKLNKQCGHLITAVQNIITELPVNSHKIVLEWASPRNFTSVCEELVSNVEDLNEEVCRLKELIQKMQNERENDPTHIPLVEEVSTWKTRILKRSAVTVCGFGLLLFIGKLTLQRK

[3] = target: PIWIL2 (endogenous, mouse testis) (mouse (endogenous in testis)) (UniProt Q8CDG1); test: co-IP; adult mouse testis lysates with or without RNase A (250 μg/mL, then 125 μg/mL more); lysis buffer A (150 mM KCl, 25 mM Tris-HCl pH 7.4, 0.5% NP-40, 5 mM EDTA, 0.5 mM DTT); IP with PIWIL2, ASZ1 or TDRD1 antibody; Western blot
[4] = target: PIWIL1 (endogenous, mouse testis) (mouse (endogenous in testis)) (UniProt Q9JMB7); test: co-IP; PIWIL1 and PIWIL2 IP in control (WT) and Tdrd1^c-3GS adult testes; PIWIL2, PIWIL1 and TDRD1 detected by Western blot
[5] = target: PIWIL2 (endogenous, mouse testis) (mouse (endogenous in testis)) (UniProt Q8CDG1); test: as above

Binder | binding [2] | binding [3] | further results
PIWIL1 PIWI domain (domain or fragment, UniProt Q9JMB7 556-848) IVVCLLSSNRKDKYDAIKKYLCTDCPTPSQCVVARTLGKQQTVMAIATKIALQMNCKMGGELWRVDMPLKLAMIVGIDCYHDTTAGRRSIAGFVASINEGMTRWFSRCVFQDRGQELVDGLKVCLQAALRAWSGCNEYMPSRVIVYRDGVGDGQLKTLVNYEVPQFLDCLKSVGRGYNPRLTVIVVKKRVNARFFAQSGGRLQNPLPGTVIDVEVTRPEWYDFFIVSQAVRSGSVSPTHYNVIYDSSGLKPDHIQRLTYKLCHVYYNWPGVIRVPAPCQYAHKLAFLVGQSIH |  |  | binding [1]: binds
MOV10L1 (protein, UniProt Q99MV5 1-1187) MIDDLIYFSNDAVTSTVLLNVGQEVIAVVEENKVSNGLKAIRVEAVSDKWEDDSKNSSKGLSDSSPRVLIGCVTSMLEGAGYISQTTYFSLESVCEGFHPCKGDWVEAEYWIRPGTWSSEAISVKPLRYKRVDKVCISSLCGRNGVIEDSIFFSLDSLKLPEGYIPRRHDIVNAVVVESSQSCYIWRALCMTPVKRDATLGEAPQEPYGALLLKNKGDIEVTRMTSFGTLKEGESKSIVIWIENKGKFSRELVSCRLANWDKAHQFRFETQGRSKSCPGAAAGSVPEGENVNSLNHHREDKTDEIPESRLANSTEISPDGCACKEESREKGNTPEKQEPEPGGLIPPGEKTHIVVTCSAKNPGRCKELLLLCFSDFLIGRHLEVSVVSSEEALIAVREPFSWKKPKSSQTLVSAKTTVVVTTQKRNSRRQLPSFLPQYPIPDRLKKCVEQKIDILTFQPLLAELLNMSNYKEKFSTLLWLEEIHAEIELKEYNMSRVVLKRKGDLLVLEVPGLAESRPSLYAGDKLILKSQEYNGHVIEYIGYVMEIHEEDVTLKLNPGFEQMYNFEPMDVEFTYNRTTSRRCHYALEQVIHLGVKVLFPEEIILQSPQVTGNWSLAQDTKNDGQSITNITRNDGQSMTKVTRNDSQSITNIIRNDGQSITNVTRNDGQPITKVTRNNSQSITNITRNDGQPITKNKKTVKDQTKHTTEERHVGTTDQPEKASSTAETMDEIQIPKARDKEFFNPVLNENQKLAVRRILSGDCRPLPYILFGPPGTGKTVTIIEAVLQVHYALPDSRILVCAPSNSAADLVCLRLHESKVPKPAAMVRVNATCRFEETIIDAIKPYCRDGEDIWRASRFRIIITTCSSAGLFYQIGVRVGYFTHVFVDEAGQASEPECLIPLGLISDINGQIVLAGDPMQLGPVIKSRLAMAYGLNVSMLERLMSRPAYLRDENAFGACGAYNPLLVTKLVKNYRSHSALLALPSRLFYHRELEVCADPKVVTSLLGWEKLPRKGFPLIFHGVRGNEAREGRSPSWFSPAEAVQVMRYCCLLARSVSSQVSSKDIGVITPYRKQVEKIKILLRNVDLTDIKVGSVEEFQGQEYLVIVISTVRSNEDRFEDDRYFLGFLSNSKRFNVAITRPKALLIILGNPHVLVRDPCFGALLEYSVSNGVYTGCDLPPELQALQK | binds weakly |  | 
ASZ1 (endogenous, mouse testis) (protein, UniProt Q8VD46 1-475) MAAGTLRGLAVAGGGESSDSEDDGWDIGYLDRSSQKLKRSLPVEEKNETFKKALTTGDISLVKELLDSGINVDSSFRYGWTPLMYAASVANAELVRFLLDRGANASFDKDKLTILISACSARGSEEQVLKCVELLLSRNADPNTACRRLMTPIMYAARDGHTQVVALLVAHGAEVNAQDENGYTALTWAARQGHKNVILKLLELGANKMLQTKDGRTPSEIAKRNKHLEIFNFLSLTLNPLEGKLQQLTKEETICKLLATDSDKEKDHIFSPYTAFGDLEIFLHGLGLEHMTDSLKEKDITLRHLLTMKKDELTKNGIASKDQQKILAALKELEVEEINFGKLPEVTKLEISGDEFLNFLLKLNKQCGHLITAVQNIITELPVNSHKIVLEWASPRNFTSVCEELVSNVEDLNEEVCRLKELIQKMQNERENDPTHIPLVEEVSTWKTRILKRSAVTVCGFGLLLFIGKLTLQRK |  | binds | 
TDRD1 (endogenous, mouse testis) (protein, UniProt Q99MV1 1-1172) MMPRNNLEASTCKMAEPFNFEKKESKPPPQDPLRSPVAQHNHPTFRLKSPENGNTKNNFLLCEQNKQYLASQEDSSVVSSNPAVVNGEVGGSKGDRKPPPTGNPVSPLSLGNSSPPNQVKTKPSSNVTPEKSKKSHKLFENALSVNNPALFNSLGPPLRSTTCHRCGLFGSLRCSQCKQTYYCSTACQRRDWSSHSTICRPVQQSLNKLEDNKSPFETKAIEVKSEVDCPPGVTKEITAGAERVMFSDLRSLQLKKTMEIKGTVTEFKHPSNFYIQLYSSEVLENMNQLSTSLKETYANVVPEDGYLPVKGEVCVAKYTVDQTWNRAIVQAVDVLQRKAHVLYIDYGNEEMIPIDSVHPLSRGLDLFPPSAIKCCVSGVIPTAGEWSEGCVAAVKALLFEQFCSVKVMDILEEEVLTCAVDLVLQSSGKQLDHVLVEMGYGVKPGEQSSTEQSVDHSALEDVGRVTVESKIVTDRNALIPKVLTLNVGDEFCGVVAHIQTPEDFFCQQLQSGHKLAELQESLSEYCGHVIPRSDFYPTIGDVCCAQFSEDDQWYRASVLAYASEESVLVGYVDYGNFEILSLKRLCPIIPKLLDLPMQALNCVLAGVKPSLGIWTPEAVCVMKEMVQNRMVTVRVVGMLGTRALVELIDKSVAPHVSASKALIDSGFAIKEKDVADKGSSMHTASVPLAIEGPAEALEWTWVEFTVDETVDVVVCMMYSPGEFYCHFLKDDALEKLDDLNQSLADYCAQKPPNGFKAEIGRPCCAFFSGDGNWYRALVKEILPSGNVKVHFVDYGNVEEVTTDQLQAILPQFLLLPFQGMQCWLVDIQPPNKHWTKEATARFQACVVGLKLQARVVEITANGVGVELTDLSTPYPKIISDVLIREQLVLRCGSPQDSLMSRPANQHKQIDSHRVQASPSAEQWKTMELPVNKTIAANVLEIISPALFYAIPSEMSENQEKLCVLAAELLEHCNAQKGQPAYRPRTGDACCAKYTNDDFWYRAIVLETSESDVKVLYADYGNIETLPLSRVQPIPASHLELPFQIIRCSLEGPMELNGSCSQLVMELLRNAMLNQSVVLSVKAISKNVHAVSVEKCSENGMINIAENLVMCGLAENLTSKRKSASTKEIPHSRDCCCTELQKQIEKHEQILLFLLNNPTNQSKFTEMKKLLRS |  | binds | binding [4]: binds; binding [5]: binds
PIWIL2 middle region (201–600 aa) (domain or fragment, UniProt Q8CDG1 201-600) VLTMERKEKELLVKQGSKGTPQSLGLNLIKIQCHNEAVYQYHVTFSPSVECKSMRFGMLKDHQSVTGNVTAFDGSILYLPVKLQQVVELKSQRKTDDAEISIKIQLTKILEPCSDLCIPFYNVVFRRVMKLLDMKLVGRNFYDPTSAMVLQQHRLQIWPGYAASIRRTDGGLFLLADVSHKVIRNDSVLDVMHAIYQQNKEHFQDECSKLLVGSIVITRYNNRTYRIDDVDWNKTPKDSFVMSDGKEITFLEYYSKNYGITVKEDDQPLLIHRPSERQNNHGMLLKGEILLLPELSFMTGIPEKMKKDFRAMKDLTQQINLSPKQHHGALECLLQRISQNETASNELTRWGLSLHKDVHKIEGRLLPMERINLRNTSFVTSEDLNWVKEVTRDASILTIP | binds |  | 
